Experimental data as given in PubChem BioAssay AID1347120 (National Center for Advancing Translational Sciences (NCATS), 2019).
Among all 390,000 compounds or so, about 930 (0.24%) were called active. The shares of active, inactive and inconclusive entries below differ from those in the screen. The call rests on the fitted dose curve; in most records, active means well fitted activation curve with a large enough effect; inconclusive means small, poorly fitted or top-dose-only effect; inactive means no such curve, though single readings can be large or run the other way. Where the call is inconclusive, the potency comes from a doubtful curve fit.

Experiment: qHTS for Suppressors of FUS Proteinopathy: Primary screen using FUS-linked yeast assay; further: nearly all actives have a fitted effect of over 55% in size;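 on growth rescue (activation): plate controls were DMSO vehicle for no effect and reference control for full effect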
Conditions: S. cerevisiae FUS-expressing, OD600, 24 h; Potency: growth rescue; growth rescue (activation): at 76.6 µM (top of the series)
Procedure, shortened: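 Galactose (2%) drives FUS expression in yeast precultured in raffinose; seeding density OD 0.005. Test compounds incubated 24hr at 30C and 99% humidity before absorbance at 600 nm was measured.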
Potency means the concentration at half of the fitted maximal effect; tags describe the fitted curve by direction and shape.

SMILES	growth rescue (activation)	Potency
CN1CCCC(C)(C(=O)Nc2cccc(Oc3ccccc3)c2)C1 (configuration not stated)	inactive: 0.879%	–
Cc1c(NC(=O)c2ccc(Br)o2)cccc1-c1nc2ccccc2o1	inactive: 2.08%	–
CC(=O)Nc1ccc(Nc2ncnc3c2c(-c2ccccc2)cn3-c2ccc(C)c(Cl)c2)cc1	–	inconclusive: 35.5 µM [activator, single point]
O=C(NCc1ccccc1)C(c1ccccc1F)n1c(=O)c(-c2cc3ccccc3[nH]2)nc2ccccc21 (configuration not stated)	–	inconclusive: 15.8 µM [activator, partial curve]
CCc1ccccc1NC(=O)c1cc2c(Cl)nc3ccccc3c2s1	inactive: -3.78%	–
CCOC(=O)c1cc(-c2ccccc2)n(-c2cccc(C(=O)N(C)c3ccc(C)cc3)c2)c1C	–	inconclusive: 28.2 µM [activator, single point]
CC(C)=CCC/C(C)=C/CNCC(=O)N1c2ccccc2[C@]2(C)C[C@@H]3C(=O)N(C/C=C(\C)CCC=C(C)C)CC(=O)N3[C@H]12	–	inconclusive: 20 µM [activator, partial curve, poor fit]
C[C@H](CO)N1C[C@H](C)[C@@H](CN(C)C(=O)Nc2ccc(C(F)(F)F)cc2)Oc2c(NC(=O)Nc3ccc4c(c3)OCO4)cccc2C1=O	–	inconclusive: 22.4 µM [activator, single point]
N#CC1=C2SCC(O)(c3ccccc3)N2C(=O)CC1c1cccs1 (configuration not stated)	–	inconclusive: 31.6 µM [activator, partial curve, poor fit]
N=C1/C(=C\c2ccc(OC(=O)c3ccccc3Cl)cc2)C(=O)N=C2SC(N3CCOCC3)=NN12	–	inconclusive: 8.91 µM [activator, partial curve, poor fit]
C=CCn1c(C)c(C(C)=O)c(N2CCCC2)nc1=S	–	inconclusive: 50.1 µM [activator, partial curve, poor fit]
C[C@@H]1CN([C@@H](C)CO)C(=O)c2cc(-c3ccncc3)cnc2O[C@H]1CN(C)C(=O)c1cccc(F)c1	inactive: -5.22%	–
CCOc1ccc(-c2cc3nc(C4CCN(C(=O)OC(C)(C)C)CC4)c(C(=O)O)cn3n2)cc1	–	inconclusive: 35.5 µM [activator, partial curve, poor fit]
CC12CCC(c3c(C(=O)O)nn(-c4ccc(F)cc4)c31)C2(C)C (configuration not stated)	inconclusive: 64.1% [activator]	–
CCOc1cc(C2Sc3ccccc3NC3=C2C(=O)c2ccccc23)ccc1O (configuration not stated)	–	inconclusive: 50.1 µM [activator, single point]
CCOC(=O)[C@]12CCC=C1N(Cc1ccc(Cl)cc1Cl)C(=O)[C@H](CC(=O)NCc1ccc(OC)c(OC)c1)C2	–	inconclusive: 14.1 µM [activator, partial curve, poor fit]
COc1cc(C#Cc2c(-c3cncn3C)n(C)c3ccc(-c4ccc5cc[nH]c5c4)cc23)cc(OC)c1	–	inconclusive: 35.5 µM [activator, single point]
C[C@@H](C(=O)Nc1ccc2ccccc2c1)[C@@H]1C[C@@]1(C)[C@@H](NC(=O)c1cccnc1)c1ccccc1	–	inconclusive: 35.5 µM [activator, single point]
O=C(NC1CCCCCC1)C1Cc2ccccc2CN1C(=O)c1ccco1 (configuration not stated)	–	inconclusive: 31.6 µM [activator, single point]

SMILES	growth rescue (activation)	Potency
CCOC(=O)n1cc(-c2cnc(CNC(=O)C(C)(c3ccccc3)c3ccccc3)o2)c2ccccc21	–	inconclusive: 20 µM [activator, single point]
CCOC(=O)[C@]12CCC=C1N(Cc1ccc(Cl)cc1Cl)C(=O)[C@H](CC(=O)N1CCN(C(=O)c3ccco3)CC1)C2	–	inconclusive: 17.8 µM [activator, partial curve, poor fit]
Cc1onc(-c2ccccc2Cl)c1C(=O)OCC(=O)Nc1ccc2c(c1)OCO2	–	inconclusive: 39.8 µM [activator, partial curve, poor fit]
COc1ccc(C(=O)c2sc(Nc3cc(Cl)ccc3C)nc2N)cc1OC	–	inconclusive: 25.1 µM [activator, single point]
Cc1ccc(NC(=O)C(C)OC(=O)/C=C/c2ccccc2)cc1S(=O)(=O)N1CCOCC1 (configuration not stated)	–	inconclusive: 12.6 µM [activator, partial curve]
Cc1ccsc1C1Nc2ccc3ncccc3c2C2=C1C(=O)CC(C)(C)C2 (configuration not stated)	–	active: 12.6 µM
Cc1nc2nc(SCC(=O)N(Cc3ccccc3)C(C)C)nn2c(C)c1Cc1ccccc1Cl	–	inconclusive: 28.2 µM [activator, single point]
COc1cc(C(=O)N2CCCC(c3nc(-c4cccs4)no3)C2)cc(OC)c1OC (configuration not stated)	–	inconclusive: 2.24 µM [activator, full curve, poor fit]
O=C(Nc1ccc2nc3n(c(=O)c2c1)CCCCC3)C(=O)N1CCN(c2ccc(F)cc2)CC1	inconclusive: -73.1% [activator]	–
COc1ccc(C(=O)CN2CC(C)SC2=Nc2ccc(Cl)cc2)cc1 (configuration not stated)	–	inconclusive: 31.6 µM [activator, partial curve, poor fit]
C/C(=N\NC(=O)c1ccc(Cl)c(Cl)c1)c1ccccn1	inactive: -2.76%	–
CC(=O)Nc1ccc(-c2ccnc3c2CC(C)(C(=O)Nc2ccc(F)c(Cl)c2)O3)cc1 (configuration not stated)	–	inconclusive: 28.2 µM [activator, single point]
CSc1nc(Cl)c(Br)c(Nc2c[nH]c(=O)[nH]c2=O)n1	inactive: 18.4%	–
COC(=O)c1ccc(OCC(=O)Nc2nn(-c3ccccc3)nc2C(N)=O)cc1	inconclusive: 49.8% [activator]	–
O=C(c1cccs1)N1CCCC(c2nc3c(nnn3Cc3cccc(Cl)c3)c(=O)[nH]2)C1 (configuration not stated)	–	inconclusive: 7.08 µM [activator, partial curve]
CC(C)(C)OC(=O)/C=C/[C@@H](CCCCl)Sc1ccc(C(C)(C)C)cc1	inactive: 25.6%	–
CC(C)(C)OC(=O)N[C@@H](Cc1ccccc1)c1nnc(S(=O)(=O)Cc2cccc(F)c2)o1	inactive: -8.63%	–
COc1ccc(C2C(C(=O)Nc3ccccc3)=C(C)Nc3nc(-c4ccccc4Cl)nn32)cc1OC (configuration not stated)	–	inconclusive: 35.5 µM [activator, single point]
CCC(=O)N/C=C/n1cnc2cc(C(F)(F)F)ccc21	–	inconclusive: 50.1 µM [activator, single point]

SMILES	growth rescue (activation)	Potency
O=C(c1cccs1)N1C[C@@H](O)[C@H](n2cc(-c3ccc(F)cc3)nn2)C[C@@H]1c1ccccc1	–	inconclusive: 31.6 µM [activator, single point]
O=C(c1n[nH]c(=O)c2ccccc12)N1CCN(c2ccccc2)CC1	–	inconclusive: 5.01 µM [activator, full curve, poor fit]
COc1ccc(CC(=O)NCc2ccc3c(c2)CCN3C(=O)c2cccc(C)c2)cc1	–	inconclusive: 22.4 µM [activator, single point]
Cc1ccc(-n2cnc3cc(C(=O)NCc4ccccc4Cl)ccc32)c(C)c1	–	inconclusive: 31.6 µM [activator, single point]
Cc1cccc(Cn2cccc2CNS(=O)(=O)c2ccc(C)c(C)c2)c1	inactive: 2.4%	–
Cc1cccc(C(=O)N2N=C(c3ccc(NS(C)(=O)=O)cc3)CC2c2cccs2)c1 (configuration not stated)	–	inconclusive: 20 µM [activator, single point]
CCOC(=O)[C@]12CCCC=C1N(Cc1cccc3ccccc13)C(=O)[C@H](CC(=O)N1CCSCC1)C2	–	inconclusive: 12.6 µM [activator, partial curve, poor fit]
CN1/C(=C\C(=O)COc2ccc3c(c2)OCO3)C(C)(C)c2ccccc21	inactive: 12.9%	–
COc1ccc(N(Cc2cccs2)C(=O)COc2ccc([N+](=O)[O-])cc2)cc1	inactive: 23.9%	–
C#CCOCCOCCOCCNc1nc(N2CCN(C(=O)C(Cc3cc4ccccc4[nH]3)n3cc(C(N)C(C)CC)nn3)CC2)nc(N2CCN(C(=O)C(Cc3cc4ccccc4[nH]3)n3cc(C(N)C(C)CC)nn3)CC2)n1 (configuration not stated)	–	inconclusive: 17.8 µM [activator, partial curve, poor fit]
COc1ccc(CN2CC[C@H]3C=CC[C@@H](C(=O)Nc4ccc(Cl)c(C(F)(F)F)c4)[C@H]3C2=O)cc1OC	–	inconclusive: 25.1 µM [activator, single point]
CN(C)S(=O)(=O)c1cc(NC(=O)CN2CCCc3ccccc32)ccc1Cl	–	inconclusive: 39.8 µM [activator, partial curve, poor fit]
COc1ccc([C@@H]2[C@@H]3C(=O)N(C(C)(C)C)C(=O)[C@@H]3[C@]3(CC(C)C)C(=O)N(c4cccc(Br)c4)C(=O)N23)cc1	–	inconclusive: 22.4 µM [activator, partial curve, poor fit]
COCCOC(=O)N1CCCCC1c1cc(C(=O)Nc2cccc3c2CCCC3)no1 (configuration not stated)	–	inconclusive: 28.2 µM [activator, partial curve, poor fit]
Cc1ccc(S(=O)(=O)Nc2ccc(=O)n(Cc3ccc(Cl)c(Cl)c3)c2)cc1	–	inconclusive: 28.2 µM [activator, single point]
Cc1ccc2sc(N(CCCN(C)C)C(=O)c3ccc(S(=O)(=O)N(C)Cc4ccccc4)cc3)nc2c1C	–	inconclusive: 39.8 µM [activator, single point]
c1ccc(-c2cncnc2)nc1	–	inconclusive: 7.08 µM [activator, single point]
COc1ccccc1NC(=O)C(CC(C)C)NC(=O)C1CCCCC1 (configuration not stated)	inactive: 11.8%	–
O=C1CN(C(=O)c2ccc(S(=O)(=O)N3CCCC3)cc2)C(c2ccc(F)cc2)c2cc(F)ccc2N1 (configuration not stated)	–	inconclusive: 31.6 µM [activator, single point]
